Test results: the supplement of paper PMC12009370
This is one part of the list. Many values rest on one well or one pass, so single values are uncertain.

How the values were obtained:
[1] = system: IMR-32; test: drug sensitivity score (DSS), single drug with vehicle (DSS (score)); higher = more cytotoxic; extreme values may be limits of the assay; conditions: 72 h; co-treatment: vehicle (DMSO)
[2] = system: SK-N-AS; test: as above; conditions: 72 h; co-treatment: vehicle (DMSO)
[3] = system: SK-N-AS; test: drug sensitivity score (DSS) in combination with SL-176 (DSS (score)); higher = more cytotoxic; extreme values may be limits of the assay; conditions: 72 h; co-treatment: SL-176 11.2 uM (IC25 in IMR-32)
[4] = system: IMR-32; test: as above; conditions: 72 h; co-treatment: SL-176 11.2 uM (IC25 in IMR-32)
[5] = system: SK-N-AS; test: drug sensitivity score (DSS) in combination with GSK2830371 (DSS (score)); neuroblastoma lines; SL-176 and GSK2830371 are WIP1 inhibitors; higher = more cytotoxic; extreme values may be limits of the assay; conditions: 72 h; co-treatment: GSK2830371 at IC25 in IMR-32
[6] = system: IMR-32; test: as above; conditions: 72 h; co-treatment: GSK2830371 at IC25 in IMR-32
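Wherever drug sensitivity score (DSS) in combination with GSK2830371 is given: neuroblastoma cells in 384-well plates, each compound at five concentrations, luminescence read-out, DSS derived from fitted concentration-response curve combining IC50 with minimum and maximum inhibition.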
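Wherever drug sensitivity score (DSS) in combination with SL-176 is given: cells in 384-well plates, luminescence read-out, each screening drug at five concentrations, DSS derived from the fitted concentration-response curve combining IC50 with minimum and maximum inhibition.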
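Wherever drug sensitivity score (DSS), single drug with vehicle is given: 384-well screen with five concentrations per compound and a luminescence read-out, DSS computed from the fitted dose-response curve combining IC50 with minimum and maximum inhibition.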

SMILES | drug sensitivity score [1] | drug sensitivity score [2] | drug sensitivity score [3] | drug sensitivity score [4] | drug sensitivity score [5] | drug sensitivity score [6]
CNC(=O)c1ccc(N2C(=S)N(c3ccc(C#N)c(C(F)(F)F)c3)C(=O)C2(C)C)cc1F [Enzalutamide] | 0 | 0 | 0.1 | 0 | 0 | 0
CNC(=O)c1cccc(-c2ccc3c(N4CCOC[C@@H]4C)nc(N4CCOC[C@@H]4C)nc3n2)c1 [Vistusertib] | 14.9 | 16.2 | 14.6 | 14.2 | 16.7 | 17.4
CN(C)C(=O)c1cc2cnc(Nc3ccc(N4CCNCC4)cn3)nc2n1C1CCCC1 [Ribociclib] | 4.8 | 6.9 | 5 | 4.7 | 6 | 2.5
O=C(NC[C@H](O)CN1CCc2ccccc2C1)c1cc(NC2COC2)ncn1 | 0 | 0.1 | 0.4 | 1.3 | 0 | 2.6
NC(=O)Nc1cc(-c2cccc(F)c2)sc1C(=O)N[C@H]1CCCNC1 | 8.6 | 13.1 | 10.7 | 9.2 | 13 | 5.8
CC(=O)O[C@H]1C(=O)[C@@]2(C)[C@H]([C@H](OC(=O)c3ccccc3)[C@]3(O)C[C@H](OC(=O)[C@H](O)[C@@H](NC(=O)c4ccccc4)c4ccccc4)C(C)=C1C3(C)C)[C@]1(OC(C)=O)CO[C@@H]1C[C@@H]2O [Paclitaxel] | 42 | 25.3 | 24.3 | 39.5 | 25.9 | 41
C[C@H]1CNCCCN1S(=O)(=O)c1cccc2cncc(F)c12 [Ripasudil] | 0 | 0 | 0 | 1.3 | 0 | 0
Cc1cc(Nc2ncc(Cl)c(Nc3ccccc3S(=O)(=O)C(C)C)n2)c(OC(C)C)cc1C1CCNCC1 [Ceritinib] | 0 | 2.6 | 4.2 | 7.5 | 3.1 | 0
CC(=O)O[C@@]12CO[C@@H]1C[C@H](O)[C@@]1(C)C(=O)[C@H](O)C3=C(C)[C@@H](OC(=O)[C@H](O)[C@@H](NC(=O)OC(C)(C)C)c4ccccc4)C[C@@](O)([C@@H](OC(=O)c4ccccc4)[C@H]21)C3(C)C [Docetaxel] | 41.7 | 26.8 | 25.3 | 42.4 | 27 | 42.5
COc1ccc(-c2ccc3c(N4CCOC[C@@H]4C)nc(N4CCOC[C@@H]4C)nc3n2)cc1CO | 19.6 | 22.1 | 20.9 | 18.4 | 22.5 | 24.5
CN(C)C/C=C/C(=O)Nc1cc2c(Nc3ccc(F)c(Cl)c3)ncnc2cc1O[C@H]1CCOC1 [Afatinib] | 0 | 0.1 | 0 | 0 | 0 | 0
Nc1ccccc1NC(=O)c1ccc(CNC(=O)OCc2cccnc2)cc1 [Entinostat] | 15.4 | 9.4 | 8.5 | 11.9 | 8.8 | 15.8
C[C@]12C=CC(=O)C=C1CC[C@@H]1[C@@H]2[C@@H](O)C[C@@]2(C)[C@H]1CC[C@]2(O)C(=O)CO [Prednisolone] | 0.3 | 0 | 0.1 | 0 | 0 | 0
CN(C)CCOc1ccc(/C(=C(/CCCl)c2ccccc2)c2ccccc2)cc1 [Toremifene] | 5.6 | 3.9 | 4.6 | 7.9 | 5.3 | 5
CC1(C)CCC(c2ccc(Cl)cc2)=C(CN2CCN(c3ccc(C(=O)NS(=O)(=O)c4ccc(N[C@H](CCN5CCOCC5)CSc5ccccc5)c(S(=O)(=O)C(F)(F)F)c4)cc3)CC2)C1 [Navitoclax] | 13.2 | 0 | 2.1 | 20.8 | 0 | 19.1
O=C1Cc2cc(C(=O)NC3C[C@H]4CC[C@@H](C3)N4S(=O)(=O)CC3CCN(CCCC(F)(F)F)CC3)c(Cl)cc2N1 (stereo partly specified) | 0.1 | 0 | 0 | 0 | 0 | 0.5
CN[C@@H](C)C(=O)N[C@H]1CN(C(=O)CC(C)C)CC[C@H]2CC[C@@H](C(=O)NC(c3ccccc3)c3ccccc3)N2C1=O | 0 | 0 | 0 | 0 | 0.1 | 0
CCn1c(=O)c(-c2ccc(Cl)cc2Cl)cc2cnc(Nc3ccc(N4CCNCC4)c(F)c3)nc21 | 2.4 | 3.5 | 4.2 | 2.6 | 5.5 | 6.9
COc1cc(OC)cc(N(CCNC(C)C)c2ccc3ncc(-c4cnn(C)c4)nc3c2)c1 [Erdafitinib] | 0 | 0 | 0 | 0.4 | 0 | 3.6
CO[C@H](C(=O)[C@@H](O)[C@@H](C)O)[C@@H]1Cc2cc3cc(O[C@H]4C[C@@H](O[C@@H]5C[C@@H](O)[C@H](O)[C@@H](C)O5)[C@H](O)[C@@H](C)O4)c(C)c(O)c3c(O)c2C(=O)[C@H]1O[C@H]1C[C@@H](O[C@@H]2C[C@@H](O)[C@@H](O[C@@H]3C[C@](C)(O)[C@H](O)[C@@H](C)O3)[C@@H](C)O2)[C@H](O)[C@@H](C)O1 [Plicamycin] | 19.2 | 5.6 | 6.1 | 10.1 | 5.7 | 15.8
CN1CCN(C2CCN(C(=O)Nc3cc(Oc4ccc(NC(=O)C5(C(=O)Nc6ccc(F)cc6)CC5)c(F)c4)ccn3)CC2)CC1 [Golvatinib] | 0 | 0 | 0 | 1 | 0 | 0
Nc1ncnc2c1nc(Cl)n2[C@@H]1O[C@H](CO)[C@@H](O)[C@H]1O [8-chloro-adenosine] | 20.2 | 15.2 | 16 | 16.5 | 16.4 | 18.6
O=C(Nc1cc(Oc2cc(F)c(NC(=O)C3(C(=O)Nc4ccc(F)cc4)CC3)cc2F)ccn1)C1CC1 [Altiratinib] | 8.3 | 5.3 | 4.3 | 9.5 | 4.6 | 11.1

SMILES | drug sensitivity score [1] | drug sensitivity score [2] | drug sensitivity score [3] | drug sensitivity score [4] | drug sensitivity score [5] | drug sensitivity score [6]
CCN(CC)CCN(Cc1ccc(-c2ccc(C(F)(F)F)cc2)cc1)C(=O)Cn1c(SCc2ccc(F)cc2)nc(=O)c2c1CCC2 [Darapladib] | 1.3 | 0 | 0 | 0.4 | 0.9 | 1
N#CCNC(=O)c1ccc(-c2ccnc(Nc3ccc(N4CCOCC4)cc3)n2)cc1 [Momelotinib] | 6.6 | 4.6 | 4.7 | 5.3 | 4.8 | 5.6
CN1CCN(c2cc(C(=O)Nc3ccc4c(c3)-c3c(c(C(N)=O)nn3-c3ccc(F)cc3)CC4)c(Cl)cn2)CC1 | 9.2 | 4.8 | 6.7 | 8.7 | 6.1 | 9.5
C=CCN(/C=C1/C(=O)O[C@H](COC)[C@@]2(C)C1=C(O)C(=O)C1=C2[C@H](OC(C)=O)C[C@]2(C)C(=O)CC[C@@H]12)CC=C [Sonolisib] | 0.2 | 0.2 | 0 | 0.3 | 0 | 0
CCNCCS(=O)(=O)NC[C@@]1(c2ccccc2)SC(NC(=O)C(C)(C)C)=NN1C(=O)C(C)(C)C [Litronesib] | 30.5 | 22.6 | 22.2 | 30.6 | 24.1 | 31.2
O=C(Nc1cccc(NC(=O)c2cccc(O)c2O)c1)c1cccc(O)c1O | 21.6 | 17 | 19.6 | 25 | 16.9 | 24.8
Cc1c(-c2c(-c3ccc(F)o3)sc3ncnc(O[C@H](Cc4ccccc4OCc4ccnn4CC(F)(F)F)C(=O)O)c23)ccc(OCCN2CCN(C)CC2)c1Cl | 3.6 | 1.9 | 3.3 | 5.7 | 2.1 | 4.1
CCCCCCCCCCCCCCCCOP(=O)([O-])OCC[N+](C)(C)C [Miltefosine] | 6.2 | 5.4 | 6.1 | 9.3 | 6.5 | 10.5
O=C(Nc1nc2cccc(-c3ccc(CN4CCS(=O)(=O)CC4)cc3)n2n1)C1CC1 [Filgotinib] | 9.3 | 3.7 | 2.3 | 8.8 | 2.9 | 9.5
C[C@@H]1C[C@H](N)C[C@H](c2ccncc2NC(=O)c2ccc(F)c(-c3c(F)cccc3F)n2)C1 | 15.7 | 4.2 | 2.9 | 11.6 | 4.5 | 21.8
CONC(=O)c1ccccc1Nc1cc(Nc2cc(C)nn2C(C)C)ncc1Cl | 0 | 0 | 0 | 0.6 | 0 | 0
C[C@@H]1COC(Nc2ccc3ncnc(Nc4ccc(OCc5nccs5)c(Cl)c4)c3c2)=N1 [Varlitinib] | 2.6 | 3.3 | 3.4 | 0 | 3.2 | 3.8
C[C@@H]1CN(CC(=O)Nc2ccc3c(c2)Cc2cccc(-c4cc(=O)cc(N5CCOCC5)o4)c2S3)C[C@H](C)O1 | 2.1 | 2.5 | 2.8 | 13.4 | 3.5 | 1.4
NCCNc1ccc(NCCN)c2c1C(=O)c1ccncc1C2=O [Pixantrone] | 1.2 | 0.9 | 1.1 | 0.8 | 0.9 | 0.9
CN(C)C(=N)NC(=N)N [Metformin] | 0 | 0 | 0 | 0 | 0 | 0
CC(C)c1cc(-c2n[nH]c(=O)n2-c2ccc3c(ccn3C)c2)c(O)cc1O [Ganetespib] | 14.2 | 19.2 | 24.1 | 14.8 | 18.5 | 13.8
CC(C)(C)C[C@@H]1N[C@@H](C(=O)N[C@H]2CC[C@H](O)CC2)[C@H](c2cccc(Cl)c2F)[C@]12C(=O)Nc1cc(Cl)ccc12 | 19.9 | 0 | 0.7 | 22.3 | 0.2 | 27
COc1cc2c(Nc3ccc(Cl)c(Cl)c3F)ncnc2cc1OC[C@@H]1C[C@@H]2CN(C)C[C@@H]2C1 [Tesevatinib] | 0 | 0.9 | 2.9 | 0.1 | 1.5 | 0.6
C=CC(=O)Nc1cc(Nc2nccc(-c3cn(C)c4ccccc34)n2)c(OC)cc1N(C)CCN(C)C [Osimertinib] | 7.7 | 5 | 4 | 7.8 | 4.9 | 8.7
COc1cc2/c(=N/c3ccc(Br)cc3F)nc[nH]c2cc1OCC1CCN(C)CC1 [Vandetanib] | 0.1 | 0 | 0 | 0 | 0.1 | 0
CC(C)[C@H](C(=O)Nc1ccc(C(=O)NO)cc1)c1ccccc1 | 20.7 | 16.9 | 15.8 | 20.5 | 16.3 | 21.7
Cc1ccc(NC(=O)c2ccc(CN3CCN(C)CC3)cc2)cc1Nc1nccc(-c2cccnc2)n1 [Imatinib] | 1.5 | 0.2 | 0.2 | 1.4 | 0.2 | 3.6
CC(=O)[C@]1(O)Cc2c(O)c3c(c(O)c2[C@@H](O[C@H]2C[C@H](N)[C@H](O)[C@H](C)O2)C1)C(=O)c1ccccc1C3=O [Idarubicin] | 23.1 | 9.4 | 9.4 | 22.5 | 10.2 | 25.9
